According to ChEMBL document CHEMBL5303300, “EUbOPEN Chemogenomics Library - Multiplex” (2023):

Legend:
U2OS = assay: Multiplex assay against U2OS; type: toxicity, cell-based; settings: human, number of replicates 2
Summary of the method: (§1)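 Live cells were stained at seeding with Hoechst33342, BioTracker Green Microtubule Cytoskeleton Dye, MitoTracker Red and Annexin V Alexa Fluor 680, then imaged on a CQ1 microscope at 37°C and 5% CO2 after compound addition. CellPathfinder machine-learning gating split cells into Hoechst high-intensity objects or normal cells. Normal cells were split into healthy, pyknosed or fragmented nuclei, and pyknosed cells into mitotic or apoptotic. Tubulin, mitochondrial-mass and membrane-permeability phenotypes are per cents of healthy-nucleus cells.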

Fibroblast = assay: Multiplex assay against human fibroblast; type: toxicity, cell-based; settings: number of replicates 2; summary of the method: as §1
[1] = 12 h, 1 µM, compound concentration 1 uM
[2] = 12 h, 10 µM, compound concentration 10 uM
[3] = 24 h, 1 µM, compound concentration 1 uM
[4] = 24 h, 10 µM, compound concentration 10 uM
[5] = 48 h, 1 µM, compound concentration 1 uM
[6] = 48 h, 10 µM, compound concentration 10 uM

COc1cc(OC)cc(-c2cc3cnc(N)nc3nc2NC(=O)NC(C)(C)C)c1
Population Mitotic Cells (%) (U2OS; [1]): 66, 18, 20, 55%
Total Cell Count (U2OS; [1]): 42, 158, 48, 151
Population Apoptotic (%) (U2OS; [2]): 90, 33, 47, 100%
Population Fragmented Nuclei (%) (U2OS; [2]): 4% and 25%
Population Mitotic Cells (%) (U2OS; [2]): 9, 66, 52, 0%
Total Cell Count (U2OS; [2]): 207, 40, 245, 72
Population Mitotic Cells (%) (U2OS; [3]): 40, 15, 50, 39%
Total Cell Count (U2OS; [3]): 78, 226, 68, 201
Population Fragmented Nuclei (%) (U2OS; [4]): 5, 16, 6, 14%
Population Mitotic Cells (%) (U2OS; [4]): 45, 50, 58, 16%
Total Cell Count (U2OS; [4]): 286, 50, 355, 91
Population Mitotic Cells (%) (U2OS; [5]): 50, 15, 40, 25%
Total Cell Count (U2OS; [5]): 129, 517, 101, 409
Population Fragmented Nuclei (%) (U2OS; [6]): 2, 15, 3, 17%
Total Cell Count (U2OS; [6]): 515, 79, 616, 106
Population Tubulin-Different-Phenotype (%) (Fibroblast; [2]): 14, 6, 27, 8%
Population Tubulin-Different-Phenotype (%) (Fibroblast; [4]): 15, 5, 20, 10%
Population Tubulin-Different-Phenotype (%) (Fibroblast; [6]): 15, 5, 18, 10%

Fc1cccc(-n2cnc3c(NCc4nc5ccc(F)c(F)c5[nH]4)nc(N4CCOCC4)nc32)c1
Population Apoptotic (%) (U2OS; [1]): 80% and 23%
Population Mitotic Cells (%) (U2OS; [1]): 19% and 76%
Total Cell Count (U2OS; [1]): 267 and 65
Population Fragmented Nuclei (%) (U2OS; [2]): 50% and 10%
Population Healthy Nuclei (%) (U2OS; [2]): 8% and 31%
Total Cell Count (U2OS; [2]): 36 and 145
Population Mitotic Cells (%) (U2OS; [3]): 36% and 2%
Total Cell Count (U2OS; [3]): 60 and 280
Population Fragmented Nuclei (%) (U2OS; [4]): 42% and 7%
Population Healthy Nuclei (%) (U2OS; [4]): 2% and 16%
Population Membrane Permeable-Phenotype (%) (U2OS; [4]): 0% and 34%
Total Cell Count (U2OS; [4]): 40 and 143
Population Mitochondria Different-Phenotype (%) (U2OS; [5]): 0% and 36%
Total Cell Count (U2OS; [5]): 49 and 253
Population Fragmented Nuclei (%) (U2OS; [6]): 48% and 7%
Total Cell Count (U2OS; [6]): 43 and 140
Population Fragmented Nuclei (%) (Fibroblast; [4]): 51% and 11%
Population Healthy Nuclei (%) (Fibroblast; [4]): 21% and 71%
Population Membrane Permeable-Phenotype (%) (Fibroblast; [4]): 14% and 3%
Total Cell Count (Fibroblast; [4]): 33 and 201

CC(C)(C)c1cnc(CSc2cnc(NC(=O)C3CCN(CC(=O)NCCOCCOCCOCCNc4cccc5c4C(=O)N(C4CCC(=O)NC4=O)C5=O)CC3)s2)o1 (centres undefined)
Population Mitotic Cells (%) (U2OS; [1]): 60% and 3%
Total Cell Count (U2OS; [1]): 75 and 329
Population Fragmented Nuclei (%) (U2OS; [2]): 28% and 8%
Total Cell Count (U2OS; [3]): 95 and 400
Population Mitochondria Different-Phenotype (%) (U2OS; [4]): 6% and 34%
Population Mitotic Cells (%) (U2OS; [4]): 34% and 6%
Population Apoptotic (%) (U2OS; [5]): 21% and 89%
Population Mitotic Cells (%) (U2OS; [5]): 78% and 10%
Total Cell Count (U2OS; [5]): 142 and 742
Population Tubulin-Different-Phenotype (%) (Fibroblast; [1]): 23% and 5%
Population Mitochondria Different-Phenotype (%) (Fibroblast; [6]): 7% and 26%

CN(C)C/C=C/C(=O)Nc1ccc(C(=O)N2CCCC(Nc3ncc(Cl)c(-c4c[nH]c5ccccc45)n3)C2)cc1 (centres undefined)
Population Fragmented Nuclei (%) (U2OS; [1]): 21% and 6%
Total Cell Count (U2OS; [1]): 42 and 234
Population Mitochondria Different-Phenotype (%) (U2OS; [2]): 0% and 39%
Total Cell Count (U2OS; [2]): 25 and 188
Total Cell Count (U2OS; [3]): 36 and 280
Population Healthy Nuclei (%) (U2OS; [4]): 10% and 39%
Population Mitochondria Different-Phenotype (%) (U2OS; [4]): 64% and 11%
Population Mitotic Cells (%) (U2OS; [4]): 6% and 20%
Total Cell Count (U2OS; [4]): 168 and 23
Total Cell Count (U2OS; [5]): 74 and 465
Population Fragmented Nuclei (%) (U2OS; [6]): 6% and 28%
Population Mitotic Cells (%) (U2OS; [6]): 7% and 30%
Total Cell Count (U2OS; [6]): 175 and 25
Population Membrane Permeable-Phenotype (%) (Fibroblast; [6]): 5% and 20%

CCC(=O)O[C@@H](OP(=O)(CCCCc1ccccc1)CC(=O)N1C[C@H](C2CCCCC2)C[C@H]1C(=O)[O-])C(C)C.[Na+] (some centres undefined)
Population Fragmented Nuclei (%) (U2OS; [1]): 32% and 3%
Population Mitotic Cells (%) (U2OS; [1]): 66% and 12%
Total Cell Count (U2OS; [1]): 43 and 248
Population Fragmented Nuclei (%) (U2OS; [2]): 38% and 4%
Population Mitotic Cells (%) (U2OS; [2]): 0% and 60%
Total Cell Count (U2OS; [2]): 26 and 205
Population Fragmented Nuclei (%) (U2OS; [3]): 29% and 3%
Population Mitotic Cells (%) (U2OS; [3]): 60% and 19%
Total Cell Count (U2OS; [3]): 57 and 365
Total Cell Count (U2OS; [4]): 21 and 292
Population Fragmented Nuclei (%) (U2OS; [5]): 17% and 3%
Population Mitotic Cells (%) (U2OS; [5]): 50% and 15%
Total Cell Count (U2OS; [5]): 76 and 717
Population Fragmented Nuclei (%) (U2OS; [6]): 13% and 2%
Population Pyknosed Nuclei (%) (U2OS; [6]): 21% and 5%
Total Cell Count (U2OS; [6]): 37 and 628
Population Apoptotic (%) (Fibroblast; [2]): 54% and 17%

Cn1c(Nc2c(Cl)cccc2Cl)nc2ccc3nc[nH]c(=O)c3c21
Population Fragmented Nuclei (%) (U2OS; [1]): 26% and 5%
Total Cell Count (U2OS; [1]): 50 and 212
Population Fragmented Nuclei (%) (U2OS; [2]): 29% and 4%
Total Cell Count (U2OS; [2]): 54 and 205
Population Fragmented Nuclei (%) (U2OS; [3]): 27% and 3%
Total Cell Count (U2OS; [3]): 58 and 296
Population Fragmented Nuclei (%) (U2OS; [4]): 33% and 7%
Total Cell Count (U2OS; [4]): 70 and 260
Population Fragmented Nuclei (%) (U2OS; [5]): 21% and 2%
Total Cell Count (U2OS; [5]): 80 and 578
Population Fragmented Nuclei (%) (U2OS; [6]): 44% and 13%
Total Cell Count (U2OS; [6]): 86 and 344
Population Membrane Permeable-Phenotype (%) (Fibroblast; [6]): 42% and 13%

COc1cc2nc(-c3cc(F)ccc3O)nc(N[C@@H]3CNC[C@H]3C(C)(C)O)c2cc1OC.Cl.Cl
Population Fragmented Nuclei (%) (U2OS; [1]): 25% and 7%
Total Cell Count (U2OS; [1]): 56 and 208
Total Cell Count (U2OS; [2]): 34 and 189
Total Cell Count (U2OS; [3]): 52 and 254
Population Membrane Permeable-Phenotype (%) (U2OS; [4]): 100% and 0%
Population Mitochondria Different-Phenotype (%) (U2OS; [4]): 40% and 0%
Population Tubulin-Different-Phenotype (%) (U2OS; [4]): 100% and 0%
Total Cell Count (U2OS; [4]): 168 and 27
Total Cell Count (U2OS; [5]): 63 and 371
Total Cell Count (U2OS; [6]): 29 and 168
Population Fragmented Nuclei (%) (Fibroblast; [1]): 5% and 16%
Population Fragmented Nuclei (%) (Fibroblast; [2]): 5% and 16%
Population Membrane Permeable-Phenotype (%) (Fibroblast; [2]): 33% and 3%
Population Fragmented Nuclei (%) (Fibroblast; [4]): 5% and 16%

COC(=O)c1ccc2c(c1)NC(=O)/C2=C(\Nc1ccc(-c2nccn2C)cc1)c1ccccc1
Population Apoptotic (%) (U2OS; [1]): 0% and 35%
Population Fragmented Nuclei (%) (U2OS; [1]): 26% and 3%
Total Cell Count (U2OS; [1]): 34 and 160
Population Fragmented Nuclei (%) (U2OS; [2]): 40% and 6%
Population Fragmented Nuclei (%) (U2OS; [3]): 2% and 21%
Total Cell Count (U2OS; [3]): 222 and 52
Population Fragmented Nuclei (%) (U2OS; [4]): 34% and 5%
Total Cell Count (U2OS; [4]): 52 and 224
Population Fragmented Nuclei (%) (U2OS; [5]): 19% and 3%
Total Cell Count (U2OS; [5]): 84 and 421
Population Fragmented Nuclei (%) (U2OS; [6]): 31% and 6%
Total Cell Count (U2OS; [6]): 56 and 317
Population Fragmented Nuclei (%) (Fibroblast; [3]): 10% and 31%
Population Fragmented Nuclei (%) (Fibroblast; [5]): 10% and 34%

O=C(Nc1ccc(Cl)c(-c2ccccn2)c1)c1cccc(COc2ccc(Br)cc2CNCCO)c1.O=CO
Total Cell Count (U2OS; [1]): 27 and 172
Population Fragmented Nuclei (%) (U2OS; [2]): 44% and 10%
Total Cell Count (U2OS; [2]): 36 and 148
Population Fragmented Nuclei (%) (U2OS; [3]): 17% and 3%
Total Cell Count (U2OS; [3]): 39 and 197
Population Fragmented Nuclei (%) (U2OS; [4]): 33% and 8%
Population Mitotic Cells (%) (U2OS; [4]): 0% and 28%
Total Cell Count (U2OS; [4]): 45 and 159
Population Fragmented Nuclei (%) (U2OS; [5]): 20% and 3%
Total Cell Count (U2OS; [5]): 49 and 256
Population Fragmented Nuclei (%) (U2OS; [6]): 39% and 8%
Total Cell Count (U2OS; [6]): 39 and 141
Population Membrane Permeable-Phenotype (%) (Fibroblast; [4]): 21% and 5%

CN(C)CCCN1c2ccccc2Sc2ccc(Cl)cc21.Cl [CHLORPROMAZINE HYDROCHLORIDE]
Population Apoptotic (%) (U2OS; [1]): 0% and 66%
Population Fragmented Nuclei (%) (U2OS; [1]): 50% and 3%
Population Mitotic Cells (%) (U2OS; [1]): 100% and 33%
Total Cell Count (U2OS; [1]): 28 and 197
Population Apoptotic (%) (U2OS; [2]): 20% and 63%
Population Fragmented Nuclei (%) (U2OS; [2]): 42% and 5%
Population Mitochondria Different-Phenotype (%) (U2OS; [2]): 6% and 21%
Total Cell Count (U2OS; [2]): 61 and 191
Population Apoptotic (%) (U2OS; [3]): 0% and 76%
Population Fragmented Nuclei (%) (U2OS; [3]): 46% and 1%
Total Cell Count (U2OS; [3]): 30 and 271
Population Fragmented Nuclei (%) (U2OS; [4]): 46% and 6%
Total Cell Count (U2OS; [4]): 78 and 254
Population Apoptotic (%) (U2OS; [5]): 0% and 70%
Population Fragmented Nuclei (%) (U2OS; [5]): 41% and 4%
Population Membrane Permeable-Phenotype (%) (U2OS; [5]): 18% and 1%
Population Mitochondria Different-Phenotype (%) (U2OS; [5]): 12% and 1%
Population Mitotic Cells (%) (U2OS; [5]): 100% and 29%
Total Cell Count (U2OS; [5]): 29 and 552
Population Fragmented Nuclei (%) (U2OS; [6]): 48% and 8%
Population Mitotic Cells (%) (U2OS; [6]): 7% and 25%
Total Cell Count (U2OS; [6]): 78 and 313
Population Tubulin-Different-Phenotype (%) (Fibroblast; [5]): 22% and 7%

COc1c(OCCCN2CCOCC2)ccc2c1N=C(NC(=O)c1cnc(N)nc1)N1CCN=C21 [COPANLISIB]
Population Fragmented Nuclei (%) (U2OS; [1]): 36% and 4%
Total Cell Count (U2OS; [1]): 25 and 225
Population Fragmented Nuclei (%) (U2OS; [2]): 51% and 4%
Population Membrane Permeable-Phenotype (%) (U2OS; [2]): 30% and 4%
Total Cell Count (U2OS; [2]): 31 and 165
Population Fragmented Nuclei (%) (U2OS; [3]): 36% and 3%
Population Mitotic Cells (%) (U2OS; [3]): 0% and 29%
Total Cell Count (U2OS; [3]): 25 and 309
Population Fragmented Nuclei (%) (U2OS; [4]): 55% and 6%
Population Healthy Nuclei (%) (U2OS; [4]): 22% and 71%
Population Membrane Permeable-Phenotype (%) (U2OS; [4]): 50% and 7%
Population Mitochondria Different-Phenotype (%) (U2OS; [4]): 37% and 1%
Total Cell Count (U2OS; [4]): 37 and 217
Population Fragmented Nuclei (%) (U2OS; [5]): 37% and 3%
Total Cell Count (U2OS; [5]): 25 and 531
Population Fragmented Nuclei (%) (U2OS; [6]): 63% and 10%
Population Healthy Nuclei (%) (U2OS; [6]): 2% and 53%
Population Membrane Permeable-Phenotype (%) (U2OS; [6]): 100% and 10%
Population Tubulin-Different-Phenotype (%) (U2OS; [6]): 0% and 82%
Total Cell Count (U2OS; [6]): 38 and 244
Population Tubulin-Different-Phenotype (%) (Fibroblast; [2]): 14% and 2%
Population Tubulin-Different-Phenotype (%) (Fibroblast; [6]): 19% and 4%

Not every entry of the source has a single result; some have several. The other results are left out here. The source may hold further records. The records of an entry are repeats in other runs, samples, wells, individuals or studies.
